27 molecules from publication PMC6919601, “Identification of Plasmodium dipeptidyl aminopeptidase allosteric inhibitors by high throughput screening” (PLoS ONE, 2019) can be followed below.

The campaign covered roughly 110,000 compounds. About 230 (0.21%) showed an effect of 50% or more. This is one part of the list.
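Note: 30 min substrate incubation versus DMSO and 10 µM JCP410 controls.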

The target of the experiment is DPAP1 (Plasmodium falciparum, UniProt Q8IIJ9). Nature of the experiment: primary screen, percent inhibition; read by cleavage of a fluorogenic dipeptide substrate; higher = more effect of the substance. The arrangement: species or system P. falciparum D10 trophozoite lysates; single well.
DPAP1, sequence (Q8IIJ9 whole entry, looked up): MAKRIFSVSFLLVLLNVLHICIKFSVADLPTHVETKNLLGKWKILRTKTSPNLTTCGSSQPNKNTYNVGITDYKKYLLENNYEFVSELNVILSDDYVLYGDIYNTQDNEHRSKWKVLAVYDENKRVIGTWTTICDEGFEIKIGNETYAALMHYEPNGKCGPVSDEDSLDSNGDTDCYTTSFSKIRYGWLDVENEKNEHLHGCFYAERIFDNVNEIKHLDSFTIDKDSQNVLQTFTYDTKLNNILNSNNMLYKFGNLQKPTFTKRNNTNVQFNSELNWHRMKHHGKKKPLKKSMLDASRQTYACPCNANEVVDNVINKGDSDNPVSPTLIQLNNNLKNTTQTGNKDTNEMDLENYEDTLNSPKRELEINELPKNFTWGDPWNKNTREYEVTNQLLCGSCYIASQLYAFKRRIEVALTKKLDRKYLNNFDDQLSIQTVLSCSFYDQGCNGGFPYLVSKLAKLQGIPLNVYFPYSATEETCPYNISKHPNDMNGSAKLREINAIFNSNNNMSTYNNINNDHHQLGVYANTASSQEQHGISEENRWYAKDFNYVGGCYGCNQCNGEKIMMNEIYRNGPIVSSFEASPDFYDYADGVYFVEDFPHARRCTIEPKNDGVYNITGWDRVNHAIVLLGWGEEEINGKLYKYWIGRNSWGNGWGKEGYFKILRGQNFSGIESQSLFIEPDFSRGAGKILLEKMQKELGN
Consider `COc1cccc(C(=O)c2sc3nc4c(c(-c5cccnc5)c3c2N)CCC4)c1`, for which the “% Inhibition @ 10 uM” value is reported as 7.97%.

`O=C(O)C1CCCCC1C(=O)N(Cc1ccccc1)Cc1ccccc1` (stereo not drawn): the “% Inhibition @ 10 uM” value came to 7.63%.

Turning to `Cc1ccc(N2CCN(S(=O)(=O)N(C)C)CC2)cc1Cl`, the “% Inhibition @ 10 uM” value was -2.03%.

On to `O=C(Cn1ncn2nc(-c3cccs3)cc2c1=O)N1CCN(c2ccccn2)CC1`, for which the “% Inhibition @ 10 uM” value is -2.85%.

In the case of `CCN1CCN(C(=O)c2cc3c(-c4cccc(OC)c4)nn(C)c3s2)CC1`, the “% Inhibition @ 10 uM” value came out at 1.23%.

`Cc1ccc(-n2nc3c(N4CCC(C(=O)N5CCCCCC5)CC4)nnc(C)c3c2C)cc1`: the “% Inhibition @ 10 uM” value is -2.32%.

For the molecule `C#CCN1C(=O)S/C(=C/c2ccc(O)c(Br)c2)C1=O`, the “% Inhibition @ 10 uM” value came to 0.472%.

As for `OCCN1CN(c2nc3ccccc3s2)CN(c2nc3ccccc3s2)C1`, the “% Inhibition @ 10 uM” value was 3.54%.

`CCc1c(CN2CCC(N3CCCCC3)CC2)csc1C`: the “% Inhibition @ 10 uM” value is on record as -0.999%.

With `COCCCn1c(C23CC4CC(CC(C4)C2)C3)cn2c3c(=O)n(C)c(=O)n(C)c3nc12`, the “% Inhibition @ 10 uM” value came to 1.82%.

In the case of `Cn1c(=O)c2c(nc(CN3CCCCC3)n2Cc2ccc(Cl)cc2Cl)n(C)c1=O`, the “% Inhibition @ 10 uM” value is reported as -2.29%.

Consider `OCC1CCCN(C(=S)NCc2ccccc2)C1` (stereo not drawn), for which the “% Inhibition @ 10 uM” value was -2.5%.

As for `CC1=C(C(=O)OCC(C)C)C(c2ccc(Cl)cc2Cl)NC(=O)N1` (stereo not drawn), the “% Inhibition @ 10 uM” value is recorded as -2.35%.

For `CCC(C1=NN2C(=N)/C(=C\c3coc4ccccc4c3=O)C(=O)N=C2S1)c1ccccc1` (stereo not drawn), the “% Inhibition @ 10 uM” value is -2.19%.

For the molecule `Cc1nnc2c(NCCCN3CCC(Cc4ccccc4)CC3)nc3ccccc3n12`, the “% Inhibition @ 10 uM” value was -6.05%.

Take `CCN(CC)C(=O)Cn1c(=O)oc2ccccc21`: the “% Inhibition @ 10 uM” value was -0.988%.

As for `O=C(NCCc1nc2ccccc2n1Cc1ccccc1F)c1ccccc1`, the “% Inhibition @ 10 uM” value was 2.83%.

Turning to `O=C(O)c1cc2nc(-c3ccc4c(c3)OCO4)cc(C(F)(F)F)n2n1`, the “% Inhibition @ 10 uM” value amounted to 0.0265%.

As to `COc1cc2c(cc1OC)-c1nnc(-c3ccc(Br)o3)n1C(C)(C)C2`, the “% Inhibition @ 10 uM” value is -0.828%.

On to `C/C(=N\CCc1ccccn1)c1c(C)nn(-c2ccc(Br)cc2Br)c1O`, for which the “% Inhibition @ 10 uM” value was -5.36%.

In the case of `Cc1cccc(C2C3=C(O)CCCC3=Nc3c2c(=O)n(C)c(=O)n3C)c1` (stereo not drawn), the “% Inhibition @ 10 uM” value is given as -1.47%.

As to `Cc1ccc(C)c(NC(=O)Cc2cccs2)c1`, the “% Inhibition @ 10 uM” value is listed as -5.9%.

As to `COc1cc(C2C(C#N)=C(N)Oc3cc(N(C)C)ccc32)cc2c1OCO2` (stereo not drawn), the “% Inhibition @ 10 uM” value is given as 1.26%.

For `COc1cccc(Nc2nc(C)cc(C)c2C#N)c1`, the “% Inhibition @ 10 uM” value is reported as 3.72%.

Take `O=C(NCCNC(=O)c1ccc(F)cc1)c1ccc(F)cc1`: the “% Inhibition @ 10 uM” value is recorded as -1.52%.

For `Nc1nc2nccc(-c3ccccc3)n2n1`, the “% Inhibition @ 10 uM” value is reported as 2.56%.

Regarding `COc1cccc(-n2nnc3c(=O)n(CC(=O)c4ccc(Cl)cc4)cnc32)c1`, the “% Inhibition @ 10 uM” value is -2.16%.
